We go through 2 molecules from PMC3317836.

Chains of the proteins cited; added tags and fusions are not shown. Lines headed by an entry give the natural chain unless they say otherwise; changes in a name come on top. A line that says so, or that is headed by a name, gives the form on record, which may keep a tag or linker. Residues count along the entry.
GST-cyto-plexinB1 (wild type) (O43157, residues 1512-2135): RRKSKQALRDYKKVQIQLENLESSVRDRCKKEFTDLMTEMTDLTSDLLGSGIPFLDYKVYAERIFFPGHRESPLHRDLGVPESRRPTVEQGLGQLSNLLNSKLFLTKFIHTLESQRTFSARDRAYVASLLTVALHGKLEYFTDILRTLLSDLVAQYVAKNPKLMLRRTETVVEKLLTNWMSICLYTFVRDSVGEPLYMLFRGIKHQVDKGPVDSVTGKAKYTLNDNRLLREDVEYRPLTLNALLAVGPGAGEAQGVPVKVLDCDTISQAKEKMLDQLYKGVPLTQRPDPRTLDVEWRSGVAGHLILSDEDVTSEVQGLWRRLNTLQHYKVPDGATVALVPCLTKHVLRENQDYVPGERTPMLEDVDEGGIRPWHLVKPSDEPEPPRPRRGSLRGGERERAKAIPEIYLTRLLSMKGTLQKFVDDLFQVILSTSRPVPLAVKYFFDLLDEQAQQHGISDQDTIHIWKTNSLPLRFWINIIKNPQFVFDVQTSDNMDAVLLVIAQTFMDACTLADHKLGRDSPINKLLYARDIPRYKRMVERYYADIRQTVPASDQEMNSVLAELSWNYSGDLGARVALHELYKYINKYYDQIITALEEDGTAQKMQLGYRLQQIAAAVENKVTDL
GST-cyto-plexinB1 (T1697A) (O43157, form named): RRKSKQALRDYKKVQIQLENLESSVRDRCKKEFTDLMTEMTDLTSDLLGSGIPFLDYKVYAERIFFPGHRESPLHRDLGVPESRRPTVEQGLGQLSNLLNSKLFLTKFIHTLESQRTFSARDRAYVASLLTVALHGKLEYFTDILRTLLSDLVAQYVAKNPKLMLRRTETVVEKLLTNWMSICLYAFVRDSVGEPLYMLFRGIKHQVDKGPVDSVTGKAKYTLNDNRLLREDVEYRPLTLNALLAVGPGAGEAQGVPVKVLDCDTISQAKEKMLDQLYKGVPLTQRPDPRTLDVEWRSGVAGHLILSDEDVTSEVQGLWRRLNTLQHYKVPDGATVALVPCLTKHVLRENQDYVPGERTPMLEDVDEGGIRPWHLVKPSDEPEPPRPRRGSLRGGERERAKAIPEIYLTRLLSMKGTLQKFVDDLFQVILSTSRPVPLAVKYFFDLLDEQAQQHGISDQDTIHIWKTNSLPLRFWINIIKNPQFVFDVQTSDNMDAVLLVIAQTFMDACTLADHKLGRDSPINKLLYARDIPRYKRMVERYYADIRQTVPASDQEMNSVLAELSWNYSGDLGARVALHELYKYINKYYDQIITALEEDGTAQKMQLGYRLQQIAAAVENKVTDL
GST-cyto-plexinB1 (T1795A) (O43157, form named): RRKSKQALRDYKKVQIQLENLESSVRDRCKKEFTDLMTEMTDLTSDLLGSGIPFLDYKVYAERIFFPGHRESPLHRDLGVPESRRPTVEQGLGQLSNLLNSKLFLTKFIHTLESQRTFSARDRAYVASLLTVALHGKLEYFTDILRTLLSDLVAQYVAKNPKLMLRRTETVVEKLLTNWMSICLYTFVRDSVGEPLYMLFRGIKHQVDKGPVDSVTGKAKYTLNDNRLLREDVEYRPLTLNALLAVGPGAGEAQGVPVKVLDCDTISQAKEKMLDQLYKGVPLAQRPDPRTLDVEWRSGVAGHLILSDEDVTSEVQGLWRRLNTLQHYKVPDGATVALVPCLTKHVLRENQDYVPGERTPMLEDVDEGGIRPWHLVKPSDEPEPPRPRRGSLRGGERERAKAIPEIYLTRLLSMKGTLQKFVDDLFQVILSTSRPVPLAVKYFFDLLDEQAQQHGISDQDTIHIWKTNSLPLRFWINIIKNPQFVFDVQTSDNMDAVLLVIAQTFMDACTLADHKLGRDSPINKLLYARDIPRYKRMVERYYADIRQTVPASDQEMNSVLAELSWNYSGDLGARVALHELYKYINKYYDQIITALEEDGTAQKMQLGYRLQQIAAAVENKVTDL
GST-cyto-plexinB1 (L1815P) (O43157, form named): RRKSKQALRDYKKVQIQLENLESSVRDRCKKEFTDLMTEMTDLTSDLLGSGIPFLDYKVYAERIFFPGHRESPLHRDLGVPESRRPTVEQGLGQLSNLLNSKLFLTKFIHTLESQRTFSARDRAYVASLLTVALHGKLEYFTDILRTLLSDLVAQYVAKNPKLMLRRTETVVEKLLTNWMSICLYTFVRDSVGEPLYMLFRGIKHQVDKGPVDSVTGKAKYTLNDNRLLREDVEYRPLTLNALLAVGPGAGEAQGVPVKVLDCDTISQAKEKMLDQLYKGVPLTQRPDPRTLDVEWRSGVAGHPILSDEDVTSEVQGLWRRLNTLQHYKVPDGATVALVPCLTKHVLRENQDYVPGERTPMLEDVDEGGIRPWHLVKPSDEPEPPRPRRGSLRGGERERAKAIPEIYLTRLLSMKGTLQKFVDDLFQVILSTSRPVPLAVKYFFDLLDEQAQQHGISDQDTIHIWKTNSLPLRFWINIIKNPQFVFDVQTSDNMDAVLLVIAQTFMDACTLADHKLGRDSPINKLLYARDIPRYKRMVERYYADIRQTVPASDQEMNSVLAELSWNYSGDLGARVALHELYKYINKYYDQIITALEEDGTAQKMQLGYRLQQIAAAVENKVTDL

Positions count from the first letter of the chain named. Names and notes keep the numbering of the source. These are yes or no findings as the source states them, for the method shown. Binding seen in cells or lysates may run through a third protein. Some binding calls cover weakened binding; strength is not graded here. Sequences can lack the tags named with a protein.

Assay in all cases: pull-down; GST-fused cyto-plexinB1 (WT or mutant) on the matrix incubated overnight with lysates of cells expressing RhoD(G26V)-myc or RhoD(T31K)-myc; SDS-PAGE and immunoblotting; only the target purified
A general note: A western blot detects proteins with antibodies after separation by electrophoresis.

Experiment [1] deals with GST-cyto-plexinB1 (T1697A) (UniProt O43157).
For experiment [2], the target named is GST-cyto-plexinB1 (T1795A) (UniProt O43157).
In experiment [3] the target is GST-cyto-plexinB1 (wild type) (UniProt O43157).
In experiment [4] the target is GST-cyto-plexinB1 (L1815P) (UniProt O43157).

B1: constitutively active RhoD(G26V)-myc (protein, UniProt O00212 1-210)
chain: MTAAQAAGEEAPPGVRSVKVVLVGDVGCGKTSLLMVFADGAFPESYTPTVFERYMVNLQVKGKPVHLHIWDTAGQDDYDRLRPLFYPDASVLLLCFDVTSPNSFDNIFNRWYPEVNHFCKKVPIIVVGCKTDLRKDKSLVNKLRRNGLEPVTYHRGQEMARSVGAVAYLECSARLHDNVHAVFQEAAEVALSSRGRNFWRRITQGFCVVT
In the case of B1, the binding result in experiment [1], in experiment [2], in experiment [3] and in experiment [4] was “binds” throughout.

B2: dominant negative RhoD(T31K)-myc (protein, UniProt O00212 1-210)
chain: B1 chain with V26G, T31K
With B2, the binding entry in experiment [3] is recorded as “no binding”.
